Tests used:
Test in all cases: ITC
[1] = biological target: T1, IQGAP2 Repeats (IQGAP2 residues 211-591) (human, UniProt Q13576 211-591)
T1 sequence (looked up): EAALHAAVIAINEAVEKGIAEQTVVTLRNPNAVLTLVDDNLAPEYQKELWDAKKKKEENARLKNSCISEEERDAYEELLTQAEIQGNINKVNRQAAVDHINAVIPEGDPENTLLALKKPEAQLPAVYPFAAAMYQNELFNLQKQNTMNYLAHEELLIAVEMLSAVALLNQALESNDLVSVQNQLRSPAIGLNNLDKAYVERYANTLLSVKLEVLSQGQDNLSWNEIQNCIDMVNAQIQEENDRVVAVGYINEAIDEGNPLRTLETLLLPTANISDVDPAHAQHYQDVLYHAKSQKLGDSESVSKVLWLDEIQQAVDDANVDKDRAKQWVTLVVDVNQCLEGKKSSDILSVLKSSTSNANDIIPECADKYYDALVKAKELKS

[2] = biological target: IQGAP1 Repeats (IQGAP1 residues 156-672), tag removed (human, UniProt P46940 156-672)
[3] = biological target: ezrin C-terminal fragment (residues 477-586) (human, UniProt P15311 477-586)
Chain of UniProt P15311 (P15311 477-586): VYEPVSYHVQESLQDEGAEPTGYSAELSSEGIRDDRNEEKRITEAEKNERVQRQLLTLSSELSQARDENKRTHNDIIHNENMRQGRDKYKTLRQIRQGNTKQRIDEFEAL

Ka [1]: 143000 M⁻¹
Ka [2]: 171000 M⁻¹
dH [3]: -200 ± 5.56 kJ/mol
stoichiometry N [3]: 0.815 ± 0.0155
B1: ezrin FERM domain ([…]) (domain or fragment)
chain: not shown

Source: publication PMC3975686 (Journal of proteome research, 2013)
